This is one part of the list.
What was measured:
Assay in all cases: glycan array binding signal (z-score within array); higher = stronger binding
Conditions in all cases: glycan notation: IUPAC condensed, linker removed; mutation: N288D, K313I
[1] = biological target: GlcNAc(b1-3)Gal(b1-4)GlcNAc(b1-3)Gal(b1-4)GlcNAc(b1-3)Gal(b1-4)GlcNAc(b1-2)Man(a1-3)[GlcNAc(b1-3)Gal(b1-4)GlcNAc(b1-3)Gal(b1-4)GlcNAc(b1-3)Gal(b1-4)GlcNAc(b1-2)Man(a1-6)]Man(b1-4)GlcNAc(b1-4)[Fuc(a1-6)]GlcNAc
How it was run: (§1)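 The Consortium for Functional Glycomics database supplied 3228 glycan arrays, of which those lacking an available protein sequence were dropped. The binding signal, a within-array Z-score, was averaged across arrays of the same protein sequence and across linkers. Negative scores can be read as non-binding.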

[2] = biological target: GlcNAc(b1-3)Gal(b1-4)GlcNAc(b1-3)Gal(b1-4)GlcNAc(b1-3)Gal(b1-4)GlcNAc(b1-2)[GlcNAc(b1-3)Gal(b1-4)GlcNAc(b1-3)Gal(b1-4)GlcNAc(b1-3)Gal(b1-4)GlcNAc(b1-6)]Man(a1-6)[GlcNAc(b1-3)Gal(b1-4)GlcNAc(b1-3)Gal(b1-4)GlcNAc(b1-3)Gal(b1-4)GlcNAc(b1-2)Man(a1-3)]Man(b1-4)GlcNAc(b1-4)[Fuc(a1-6)]GlcNAc
How it was run: as §1

[3] = biological target: GlcNAc(b1-3)Gal(b1-4)GlcNAc(b1-3)Gal(b1-4)GlcNAc(b1-3)Gal(b1-4)GlcNAc(b1-3)Gal(b1-4)GlcNAc(b1-2)Man(a1-3)[GlcNAc(b1-3)Gal(b1-4)GlcNAc(b1-3)Gal(b1-4)GlcNAc(b1-3)Gal(b1-4)GlcNAc(b1-3)Gal(b1-4)GlcNAc(b1-2)Man(a1-6)]Man(b1-4)GlcNAc(b1-4)GlcNAc
How it was run: as §1

[4] = biological target: GlcNAc(b1-3)Gal(b1-4)GlcNAc(b1-3)Gal(b1-4)GlcNAc(b1-3)Gal(b1-4)GlcNAc(b1-3)Gal(b1-4)GlcNAc(b1-2)Man(a1-3)[GlcNAc(b1-3)Gal(b1-4)GlcNAc(b1-3)Gal(b1-4)GlcNAc(b1-3)Gal(b1-4)GlcNAc(b1-3)Gal(b1-4)GlcNAc(b1-2)Man(a1-6)]Man(b1-4)GlcNAc(b1-4)[Fuc(a1-6)]GlcNAc
How it was run: as §1

[5] = biological target: GlcNAc(b1-3)Gal(b1-4)GlcNAc(b1-3)Gal(b1-4)GlcNAc(b1-3)Gal(b1-4)GlcNAc(b1-3)Gal(b1-4)GlcNAc(b1-2)[GlcNAc(b1-3)Gal(b1-4)GlcNAc(b1-3)Gal(b1-4)GlcNAc(b1-3)Gal(b1-4)GlcNAc(b1-3)Gal(b1-4)GlcNAc(b1-6)]Man(a1-6)[GlcNAc(b1-3)Gal(b1-4)GlcNAc(b1-3)Gal(b1-4)GlcNAc(b1-3)Gal(b1-4)GlcNAc(b1-3)Gal(b1-4)GlcNAc(b1-2)Man(a1-3)]Man(b1-4)GlcNAc(b1-4)[Fuc(a1-6)]GlcNAc
How it was run: as §1

[6] = biological target: GlcNAc(b1-3)Gal(b1-4)GlcNAc(b1-3)Gal(b1-4)GlcNAc(b1-3)GalNAc
How it was run: as §1

[7] = biological target: GlcNAc(b1-3)Gal(b1-4)GlcNAc(b1-3)GalNAc
How it was run: as §1

[8] = biological target: GlcNAc(b1-3)Gal(b1-4)GlcNAc(b1-3)[GlcNAc(b1-3)Gal(b1-4)GlcNAc(b1-3)]GalNAc
How it was run: as §1

[9] = biological target: GlcNAc(b1-3)Gal(b1-4)GlcNAc(b1-6)[Gal(b1-3)]GalNAc
How it was run: as §1

[10] = biological target: GlcNAc(b1-3)Gal(b1-4)GlcNAc(b1-6)[GlcNAc(b1-3)Gal(b1-3)]GalNAc
How it was run: as §1

[11] = biological target: GlcNAc(b1-3)Gal(b1-4)GlcNAc(b1-6)[GlcNAc(b1-3)]Gal(b1-4)GlcNAc
How it was run: as §1

GlcNAc(b1-3)GalNAc = biological target: GlcNAc(b1-3)GalNAc
How it was run: as §1

GlcNAc(b1-3)Man = biological target: GlcNAc(b1-3)Man
How it was run: as §1

[12] = biological target: GlcNAc(b1-3)[GlcNAc(b1-4)][GlcNAc(b1-6)]GlcNAc
How it was run: as §1

[13] = biological target: GlcNAc(b1-3)[GlcNAc(b1-6)]Gal(b1-4)GlcNAc
How it was run: as §1

[14] = biological target: GlcNAc(b1-3)[GlcNAc(b1-6)]GalNAc
How it was run: as §1

[15] = biological target: GlcNAc(b1-4)Gal(b1-4)GlcNAc
How it was run: as §1

GlcNAc(b1-4)GlcNAc = biological target: GlcNAc(b1-4)GlcNAc
How it was run: as §1

[16] = biological target: GlcNAc(b1-4)GlcNAc(b1-4)GlcNAc
How it was run: as §1

[17] = biological target: GlcNAc(b1-4)GlcNAc(b1-4)GlcNAc(b1-4)GlcNAc(b1-4)GlcNAc
How it was run: as §1

[18] = biological target: GlcNAc(b1-4)GlcNAc(b1-4)GlcNAc(b1-4)GlcNAc(b1-4)GlcNAc(b1-4)GlcNAc
How it was run: as §1

[19] = biological target: GlcNAc(b1-4)[GlcNAc(b1-6)]GalNAc
How it was run: as §1

[20] = biological target: GlcNAc(b1-6)Gal(b1-4)GlcNAc
How it was run: as §1

GlcNAc(b1-6)GalNAc = biological target: GlcNAc(b1-6)GalNAc
How it was run: as §1

[21] = biological target: GlcNAc6S(b1-3)Gal(b1-4)GlcNAc
How it was run: as §1

Kdn(a2-3)Gal(b1-3)GalNAc = biological target: Kdn(a2-3)Gal(b1-3)GalNAc
How it was run: as §1

Kdn(a2-3)Gal(b1-3)GlcNAc = biological target: Kdn(a2-3)Gal(b1-3)GlcNAc
How it was run: as §1

B1: Langerin (Homo sapiens), Q9UJ71 (protein)
chain: STLNAQIPELKSDLEKASALNTKIRALQGSLENMSKLLKRQNDILQVVSQGWKYFKGNFYYFSLIPKTWYSAEQFCVSRNSHLTSVTSESEQEFLYKTAGGLIYWIGLTKAGMEGDWSWVDDTPFNKVQSARFWIPGEPNDAGNNEHCGNIKAPSLQAWNDAPCDITFLFICKRPYVPSEP
glycan array binding signal (z-score) [1]: 0.409 | glycan array binding signal (z-score) [2]: 0.284 | glycan array binding signal (z-score) [3]: -0.051 | glycan array binding signal (z-score) [4]: 2.34 | glycan array binding signal (z-score) [5]: 0.125 | glycan array binding signal (z-score) [6]: -0.084 | glycan array binding signal (z-score) [7]: -0.208 | glycan array binding signal (z-score) [8]: -0.21 | glycan array binding signal (z-score) [9]: -0.32 | glycan array binding signal (z-score) [10]: -0.234 | glycan array binding signal (z-score) [11]: 5.4 | glycan array binding signal (z-score) (GlcNAc(b1-3)GalNAc): -0.205 | glycan array binding signal (z-score) (GlcNAc(b1-3)Man): -0.209 | glycan array binding signal (z-score) [12]: -0.031 | glycan array binding signal (z-score) [13]: 4.87 | glycan array binding signal (z-score) [14]: 0.39 | glycan array binding signal (z-score) [15]: -0.084 | glycan array binding signal (z-score) (GlcNAc(b1-4)GlcNAc): -0.267 | glycan array binding signal (z-score) [16]: -0.182 | glycan array binding signal (z-score) [17]: -0.255 | glycan array binding signal (z-score) [18]: -0.123 | glycan array binding signal (z-score) [19]: -0.213 | glycan array binding signal (z-score) [20]: -0.268 | glycan array binding signal (z-score) (GlcNAc(b1-6)GalNAc): -0.196 | glycan array binding signal (z-score) [21]: 0.028 | glycan array binding signal (z-score) (Kdn(a2-3)Gal(b1-3)GalNAc): -0.232 | glycan array binding signal (z-score) (Kdn(a2-3)Gal(b1-3)GlcNAc): -0.115
